# In PubChem BioAssay AID504706 (National Center for Advancing Translational Sciences (NCATS), 2011):
# About 200 (0.062%) of roughly 320,000 compounds were called active. This list was built around the results that the source calls inconclusive (neither active nor inactive); the mix of calls is not that of the screen. Calls follow the shape of the dose curve; as a rule, active = well fitted activation curve with a large enough effect; inconclusive = small, poorly fitted or top-dose-only effect; inactive = no such curve, though single readings can be large or run the other way. No potency is given beside an inconclusive call; the fits are too rough.
# Assay: qHTS assay for re-activators of p53 using a Luc reporter; also: nearly all actives have a fitted effect of over 45% in size
# Conditions: H1299 p53-A138V BP100-luciferase reporter, luminescence, 24 h; series mostly up to 92.2 µM
# Outline: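 p53-null H1299 cells stably carrying temperature-sensitive p53-A138V and a BP100-luciferase reporter were pinned with compounds (4-point, 1:5 series) and held 24 hrs at 37 deg C. Luminescence was read 10 min after detection reagent.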
# Potency is read from the fitted curve at half-maximal effect; tags tell the direction and shape of the fitted curve.
row,SMILES,Potency
1,O=C(CN1CCOCC1)c1ccc2cc[nH]c2c1,"inconclusive [activator, partial curve, poor fit]"
2,O=C1NC(=O)N(c2ccccc2)C(=O)/C1=C\c1ccc2c3c(cccc13)CC2,inactive
3,Cc1ccc(C(=O)N[C@@H](C)CN2C3=NC[C@@H](Cc4ccccc4)N3C[C@H]2Cc2ccc(O)cc2)cc1Br,inactive
4,O=C(Cn1cc(C(=O)c2ccccc2)c2ccccc21)NCc1ccco1,"inconclusive [activator, single point]"
5,Cc1ccccc1-[n+]1c(-c2ccccc2)cc(-c2ccccc2)cc1-c1ccccc1,inactive
6,COC(=O)C1=C(c2ccc(Cl)c(C(F)(F)F)c2)C[C@@H]2CC[C@H]1N2C(=O)NCC1CC1,inactive
7,Clc1ccc(OCC#CCN2CCCCCC2)cc1,"inconclusive [activator, single point]"
8,CC[N+](C)(CC)CCCOC(=O)C(O)(c1ccccc1)C1CCCCC1 (centres undefined),inactive
9,CN1CCN(Cc2cn(C)c3ccccc23)CC1CCO (centres undefined),"inconclusive [activator, single point]"
10,CC1CC(NC(=O)C2C3CCC(O3)C2C(=O)O)CC(C)(C)C1 (centres undefined),"inconclusive [activator, single point]"
11,COC(=O)C(O)(c1ccc(NC(=O)NC2CCCCC2)cc1)C(F)(F)F (centres undefined),"inconclusive [activator, partial curve, poor fit]"
12,CC(C)CCn1c(N)c(C(=O)OCC2CCCO2)c2nc3ccccc3nc21 (centres undefined),inactive
13,N#CC1=C(N)Oc2c(c(=O)oc3ccccc23)C1c1ccccc1OC(=O)c1cccs1 (centres undefined),"inconclusive [activator, partial curve, poor fit]"
14,Nc1ccc2c(c1)oc1ccccc12,inactive
15,O=C1/C(=C/c2ccc3c(c2)OCO3)N2CCC1CC2,"inconclusive [activator, full curve, poor fit]"
16,COc1ccc(/C=N/N=C(/N)N[N+](=O)[O-])c(OC)c1,"inconclusive [activator, single point]"
17,O=C1N=C(N2CCCCC2)SC1=C1CCCCC1,"inconclusive [activator, partial curve, poor fit]"
18,CCc1ccc(N2C(=O)NC(=O)/C(=C/c3cccn3CCOc3ccc(C(C)CC)cc3)C2=O)cc1 (centres undefined),"inconclusive [activator, full curve, poor fit]"
19,Oc1cc(O)cc(/C=C/c2ccc(O)cc2O)c1,"inconclusive [activator, single point]"
